Article PMC4667695
Results are given in words; binding and its absence hold for the method and conditions named. Some binding calls cover weakened binding; strength is not graded here. Sequences can lack the tags named with a protein.

Chains of the proteins cited; added tags and fusions are not shown.
UniProt P49597: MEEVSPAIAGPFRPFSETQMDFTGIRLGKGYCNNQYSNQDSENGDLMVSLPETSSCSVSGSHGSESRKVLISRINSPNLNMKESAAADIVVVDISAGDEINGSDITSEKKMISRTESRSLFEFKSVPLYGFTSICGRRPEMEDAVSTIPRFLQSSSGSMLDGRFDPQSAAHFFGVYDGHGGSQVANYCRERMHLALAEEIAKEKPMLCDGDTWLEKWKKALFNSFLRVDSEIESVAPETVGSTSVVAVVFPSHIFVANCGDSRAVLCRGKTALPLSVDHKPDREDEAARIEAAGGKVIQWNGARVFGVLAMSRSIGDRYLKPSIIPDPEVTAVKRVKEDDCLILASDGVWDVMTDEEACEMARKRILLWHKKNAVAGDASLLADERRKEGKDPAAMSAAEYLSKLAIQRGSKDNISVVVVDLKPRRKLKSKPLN

Assays:
Assay in all cases: two-hybrid; Gal4 system in yeast AH109; PUB12/13 or other genes and ABI1 in pGBKT7 (BD) and pGADT7 (AD); growth on -Trp/-Leu/-His medium, 28 °C, 4-5 days; 30 mM 3-AT where the BD fusion self-activated
[1] = target: T1, PUB13 (yeast two-hybrid fusion, BD) (Arabidopsis thaliana) (UniProt Q9SNC6)
T1 sequence: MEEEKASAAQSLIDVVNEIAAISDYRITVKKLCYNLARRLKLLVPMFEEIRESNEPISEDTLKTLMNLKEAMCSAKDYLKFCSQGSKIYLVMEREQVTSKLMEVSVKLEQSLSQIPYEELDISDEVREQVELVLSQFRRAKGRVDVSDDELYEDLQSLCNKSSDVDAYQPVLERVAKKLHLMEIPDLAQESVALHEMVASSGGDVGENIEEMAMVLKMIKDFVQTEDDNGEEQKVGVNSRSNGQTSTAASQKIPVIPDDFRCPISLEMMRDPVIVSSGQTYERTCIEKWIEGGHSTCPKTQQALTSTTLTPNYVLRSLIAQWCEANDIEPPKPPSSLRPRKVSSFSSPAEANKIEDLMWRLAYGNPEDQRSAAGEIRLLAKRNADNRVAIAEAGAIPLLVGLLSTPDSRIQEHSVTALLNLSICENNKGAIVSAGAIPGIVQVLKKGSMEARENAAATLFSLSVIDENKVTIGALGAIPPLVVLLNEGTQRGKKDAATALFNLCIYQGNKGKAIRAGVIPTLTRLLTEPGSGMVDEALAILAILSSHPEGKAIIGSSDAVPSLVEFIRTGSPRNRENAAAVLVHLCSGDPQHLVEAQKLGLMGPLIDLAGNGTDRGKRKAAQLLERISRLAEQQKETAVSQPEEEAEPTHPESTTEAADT

[2] = target: T2, SDIR1 (yeast two-hybrid fusion, BD) (Arabidopsis thaliana) (UniProt Q9M2S6)
T2 sequence: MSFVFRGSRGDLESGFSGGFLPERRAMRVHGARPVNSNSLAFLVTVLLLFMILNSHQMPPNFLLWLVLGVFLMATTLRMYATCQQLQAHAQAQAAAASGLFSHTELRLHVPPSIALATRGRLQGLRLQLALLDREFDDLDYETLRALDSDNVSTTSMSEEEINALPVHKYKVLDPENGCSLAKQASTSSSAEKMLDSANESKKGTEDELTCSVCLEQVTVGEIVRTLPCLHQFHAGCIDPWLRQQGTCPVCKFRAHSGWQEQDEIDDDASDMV

[3] = target: T3, PUB60 (yeast two-hybrid fusion, BD) (Arabidopsis thaliana) (UniProt O22785)
T3 sequence: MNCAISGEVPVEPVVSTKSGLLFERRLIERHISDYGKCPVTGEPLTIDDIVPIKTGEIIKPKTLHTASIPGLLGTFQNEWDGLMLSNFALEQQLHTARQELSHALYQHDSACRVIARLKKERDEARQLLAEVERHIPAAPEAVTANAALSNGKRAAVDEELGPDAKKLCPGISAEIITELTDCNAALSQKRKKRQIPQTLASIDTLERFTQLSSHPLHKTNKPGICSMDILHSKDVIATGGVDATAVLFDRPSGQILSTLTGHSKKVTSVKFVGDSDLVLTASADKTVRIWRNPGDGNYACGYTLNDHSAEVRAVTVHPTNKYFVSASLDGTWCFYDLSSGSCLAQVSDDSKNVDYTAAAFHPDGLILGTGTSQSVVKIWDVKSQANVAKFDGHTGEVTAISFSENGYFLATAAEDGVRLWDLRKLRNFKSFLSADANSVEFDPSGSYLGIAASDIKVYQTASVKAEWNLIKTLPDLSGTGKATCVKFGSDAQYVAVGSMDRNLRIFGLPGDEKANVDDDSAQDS

[4] = target: T4, PUB44 (yeast two-hybrid fusion, BD) (Arabidopsis thaliana) (UniProt Q9LM76)
T4 sequence: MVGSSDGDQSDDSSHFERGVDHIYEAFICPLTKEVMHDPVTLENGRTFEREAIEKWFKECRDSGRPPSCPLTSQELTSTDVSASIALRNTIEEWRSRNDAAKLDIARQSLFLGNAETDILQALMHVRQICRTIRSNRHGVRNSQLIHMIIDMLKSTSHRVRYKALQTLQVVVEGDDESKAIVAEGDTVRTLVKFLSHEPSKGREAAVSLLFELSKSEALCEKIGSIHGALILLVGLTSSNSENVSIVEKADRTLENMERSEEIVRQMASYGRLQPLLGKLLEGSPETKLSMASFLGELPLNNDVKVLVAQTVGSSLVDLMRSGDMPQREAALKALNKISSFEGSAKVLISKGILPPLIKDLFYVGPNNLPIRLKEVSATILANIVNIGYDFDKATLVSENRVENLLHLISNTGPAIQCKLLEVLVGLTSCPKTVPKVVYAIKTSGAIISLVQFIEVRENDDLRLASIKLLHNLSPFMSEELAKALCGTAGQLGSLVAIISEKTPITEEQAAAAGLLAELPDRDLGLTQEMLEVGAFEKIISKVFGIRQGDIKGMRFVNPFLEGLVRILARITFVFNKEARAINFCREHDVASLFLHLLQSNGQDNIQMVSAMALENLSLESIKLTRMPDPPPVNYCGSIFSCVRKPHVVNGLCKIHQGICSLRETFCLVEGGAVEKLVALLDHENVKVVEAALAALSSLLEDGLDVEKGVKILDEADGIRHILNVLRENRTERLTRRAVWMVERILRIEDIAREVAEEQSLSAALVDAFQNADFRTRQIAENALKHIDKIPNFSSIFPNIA

[5] = target: T5, PUB12 (yeast two-hybrid fusion, BD) (Arabidopsis thaliana) (UniProt Q9ZV31)
T5 sequence: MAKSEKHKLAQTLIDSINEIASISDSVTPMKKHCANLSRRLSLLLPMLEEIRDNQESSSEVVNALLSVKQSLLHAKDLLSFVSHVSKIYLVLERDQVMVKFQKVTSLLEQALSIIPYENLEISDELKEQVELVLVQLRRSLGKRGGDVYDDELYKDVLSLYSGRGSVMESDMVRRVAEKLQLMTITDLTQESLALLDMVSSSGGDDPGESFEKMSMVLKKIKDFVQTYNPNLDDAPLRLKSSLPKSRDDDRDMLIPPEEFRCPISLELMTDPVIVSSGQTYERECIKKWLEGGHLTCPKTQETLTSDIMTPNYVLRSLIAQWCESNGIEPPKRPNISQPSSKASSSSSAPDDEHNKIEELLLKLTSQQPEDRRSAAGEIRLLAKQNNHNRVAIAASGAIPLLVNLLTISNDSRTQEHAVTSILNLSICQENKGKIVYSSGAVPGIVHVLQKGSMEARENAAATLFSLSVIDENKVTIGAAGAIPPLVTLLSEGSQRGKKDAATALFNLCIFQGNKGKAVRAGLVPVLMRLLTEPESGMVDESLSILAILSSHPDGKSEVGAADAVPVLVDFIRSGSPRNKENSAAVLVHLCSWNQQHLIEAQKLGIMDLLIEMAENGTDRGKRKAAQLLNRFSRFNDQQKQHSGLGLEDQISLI

Measured: binding

ABI1 (yeast two-hybrid fusion, AD) (from UniProt P49597 1-434)
binds: all assays above
